# The list shows a part of the results. Values were computed here from the reads of four pooled replicates and scatter widely.
# Molecular target: T1, Pho4 (S. cerevisiae) (UniProt P07270)
# T1 sequence: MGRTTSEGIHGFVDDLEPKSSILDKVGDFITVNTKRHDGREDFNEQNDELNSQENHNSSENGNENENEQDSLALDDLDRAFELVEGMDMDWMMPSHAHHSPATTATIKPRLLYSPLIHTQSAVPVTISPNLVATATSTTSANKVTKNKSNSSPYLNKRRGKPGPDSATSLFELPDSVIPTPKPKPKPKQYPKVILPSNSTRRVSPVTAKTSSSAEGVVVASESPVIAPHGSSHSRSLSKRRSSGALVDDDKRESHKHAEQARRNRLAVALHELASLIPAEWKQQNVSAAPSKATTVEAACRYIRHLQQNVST
# Experiment: relative binding free energy (BET-seq); higher = weaker binding
# Conditions: reference: library average
row,Sequence,relative binding free energy
1,ACTAGCACGTGGGTGG,-0.28 kcal/mol
2,GGCTGCACGTGGTTAG,-0.08 kcal/mol
3,GTAAGCACGTGTCTGT,-0.06 kcal/mol
4,GGCGGCACGTGAGTGT,0.19 kcal/mol
5,GGGATCACGTGTGATG,0.32 kcal/mol
6,TCGTACACGTGTAGGG,0.03 kcal/mol
7,AGTGACACGTGGGTTT,-0.17 kcal/mol
8,TGTGACACGTGGCGGG,-0.03 kcal/mol
9,TTAAACACGTGTCGTT,0.04 kcal/mol
10,GGGAGCACGTGCGGAA,-0.07 kcal/mol
11,GAATGCACGTGGTAGG,-0.05 kcal/mol
12,CTGTTCACGTGTTGTT,0.26 kcal/mol
13,AGGATCACGTGGTGTC,0.01 kcal/mol
14,TTAGACACGTGATTAT,0.07 kcal/mol
15,TGTTTCACGTGTGTCC,0.2 kcal/mol
16,GTGAGCACGTGGAGTT,0.1 kcal/mol
17,TGCAGCACGTGGGGCA,-0.25 kcal/mol
18,GAGCGCACGTGCGGGG,-0.21 kcal/mol
19,CGGGTCACGTGAGGAT,0.32 kcal/mol
20,GCCTTCACGTGTTTTG,0.33 kcal/mol
21,GACTGCACGTGAGTTG,0.34 kcal/mol
22,AGGGGCACGTGTACGA,0.04 kcal/mol
23,TTTATCACGTGAGGAC,0.24 kcal/mol

row,Sequence,relative binding free energy
1,AGTTTCACGTGGTTAA,0.17 kcal/mol
2,TAATGCACGTGATGGA,0.11 kcal/mol
3,AATTTCACGTGCGTTA,0.16 kcal/mol
4,GCGTTCACGTGATATG,0.27 kcal/mol
5,TTAACCACGTGTTTGG,-0.12 kcal/mol
6,GTGCTCACGTGGTAAG,0.17 kcal/mol
7,GTTATCACGTGCAGGT,0.14 kcal/mol
8,TTCTACACGTGTTGTG,0.06 kcal/mol
9,CGGATCACGTGTGGTG,0.22 kcal/mol
10,CGTGTCACGTGGTCAT,0.01 kcal/mol
11,GGTCGCACGTGGTGCT,-0.1 kcal/mol
12,GCTGGCACGTGGTAGA,-0.18 kcal/mol
13,AATGGCACGTGGCGGG,-0.18 kcal/mol
14,CTTGTCACGTGGGAAG,-0.04 kcal/mol
15,CAGGGCACGTGTGGAA,0.05 kcal/mol
16,ATACGCACGTGTAGGG,-0.08 kcal/mol
17,CTGGTCACGTGATGGA,0.19 kcal/mol
18,GTGTACACGTGGTCTA,-0.12 kcal/mol
19,GGCTTCACGTGTGTTA,0.32 kcal/mol
20,TCGTACACGTGGTGGC,-0.01 kcal/mol
21,AGTGACACGTGAGGTA,0.16 kcal/mol
22,ATAAGCACGTGTTAAT,-0.11 kcal/mol
23,AATGGCACGTGGTAGC,-0.12 kcal/mol

row,Sequence,relative binding free energy
1,GCGATCACGTGTTAGG,0.26 kcal/mol
2,GGACGCACGTGGGTTT,-0.19 kcal/mol
3,TGTGCCACGTGTTGGG,-0.13 kcal/mol
4,AGTTTCACGTGATTGA,0.39 kcal/mol
5,TGGGGCACGTGGGGTC,-0.15 kcal/mol
6,GTTGTCACGTGGTTAA,0.08 kcal/mol
7,TTGTTCACGTGACGGT,0.45 kcal/mol
8,TAATGCACGTGGTGGC,-0.04 kcal/mol
9,GCCCTCACGTGGGGGG,-0.01 kcal/mol
10,ATATTCACGTGTGGTC,0.29 kcal/mol
11,GCGGTCACGTGGATGA,0.16 kcal/mol
12,ATGTACACGTGTGTGA,0.1 kcal/mol
13,CGTTACACGTGTAGAG,0.02 kcal/mol
14,GAAGGCACGTGGCGGT,-0.15 kcal/mol
15,GCCGGCACGTGGTTGG,-0.14 kcal/mol
16,CGTCTCACGTGGGTGT,0.01 kcal/mol
17,GTGGGCACGTGGTTAA,-0.01 kcal/mol
18,CTTGGCACGTGCTAGG,-0.1 kcal/mol
19,TTGGGCACGTGTTTCA,-0.1 kcal/mol
20,GAAGTCACGTGAGCGT,0.3 kcal/mol
21,GGTCACACGTGTATGT,0.16 kcal/mol
22,AGGTGCACGTGAGTTA,0.17 kcal/mol
23,TATAGCACGTGGGTAA,-0.22 kcal/mol

row,Sequence,relative binding free energy
1,GTGGGCACGTGGAACG,0.04 kcal/mol
2,CTTGTCACGTGGCGAG,-0.05 kcal/mol
3,TATTGCACGTGACGGT,0.14 kcal/mol
4,GAGGGCACGTGAAAGG,0.22 kcal/mol
5,TTTATCACGTGCTTGT,0 kcal/mol
6,TTGACCACGTGGCTGG,0.06 kcal/mol
7,GTAGGCACGTGGTAGG,-0.14 kcal/mol
8,GGCAGCACGTGATTGG,0.09 kcal/mol
9,GGTTACACGTGAAAGG,0.49 kcal/mol
10,CAGTTCACGTGGGTGG,0.18 kcal/mol
11,CTGTTCACGTGTAGAG,0.25 kcal/mol
12,GGTGTCACGTGCGTTT,0.11 kcal/mol
13,GGTAGCACGTGGAGTC,-0.02 kcal/mol
14,CGAAGCACGTGTGTGT,-0.07 kcal/mol
15,AATGACACGTGGTCGT,0.09 kcal/mol
16,ATGTTCACGTGCCTTG,0.25 kcal/mol
17,GGAGTCACGTGGTAGC,0.25 kcal/mol
18,GAGGCCACGTGGAAGG,0.14 kcal/mol
19,TAACGCACGTGGAGGT,-0.25 kcal/mol
20,TTTGGCACGTGCCGTA,-0.14 kcal/mol
21,GTCGTCACGTGCTGGG,0.06 kcal/mol
22,GTTTGCACGTGGAGTT,0.03 kcal/mol
23,TGGGTCACGTGGTATC,0.09 kcal/mol

row,Sequence,relative binding free energy
1,TTTCGCACGTGGGTCG,-0.19 kcal/mol
2,GCAGGCACGTGGGCTT,-0.15 kcal/mol
3,AATTGCACGTGTTAAG,0.04 kcal/mol
4,GTGCTCACGTGGACTG,0.25 kcal/mol
5,TTGGACACGTGGGTCA,-0.05 kcal/mol
6,CGAGTCACGTGTTTTT,0.19 kcal/mol
7,TAAAGCACGTGATTTA,0.09 kcal/mol
8,GTGTCCACGTGAGGCT,0.31 kcal/mol
9,GTTCACACGTGAGTTA,0.31 kcal/mol
10,GTGTTCACGTGTCGGT,0.3 kcal/mol
11,TAGAGCACGTGTTGGT,-0.04 kcal/mol
12,TGGGACACGTGAGATT,0.3 kcal/mol
13,ATTTGCACGTGTGACT,0.21 kcal/mol
14,AGGACCACGTGTAGTT,0.13 kcal/mol
15,TTGGGCACGTGCCGGC,-0.17 kcal/mol
16,GATGGCACGTGATGTT,0.07 kcal/mol
17,TAAGGCACGTGTTCTT,0.01 kcal/mol
18,AGGGACACGTGCTTTT,-0.01 kcal/mol
19,GGATACACGTGAGTAG,0.33 kcal/mol
20,AATTGCACGTGGGTGG,-0.11 kcal/mol
21,TTGAGCACGTGTGTTG,0 kcal/mol
22,CTCTACACGTGTTGGG,0.1 kcal/mol
23,TTGTGCACGTGTTAGT,-0.04 kcal/mol
